Measured values reported in the BET-seq Pho4 binding data (Le et al. 2018).
The list shows a part of the results. Values were computed here from the reads of four pooled replicates and scatter widely.

Each sequence was assayed against T1, Pho4 (S. cerevisiae) (UniProt P07270) (assay: relative binding free energy (BET-seq); higher = weaker binding). Conditions: reference: library average.
T1 sequence: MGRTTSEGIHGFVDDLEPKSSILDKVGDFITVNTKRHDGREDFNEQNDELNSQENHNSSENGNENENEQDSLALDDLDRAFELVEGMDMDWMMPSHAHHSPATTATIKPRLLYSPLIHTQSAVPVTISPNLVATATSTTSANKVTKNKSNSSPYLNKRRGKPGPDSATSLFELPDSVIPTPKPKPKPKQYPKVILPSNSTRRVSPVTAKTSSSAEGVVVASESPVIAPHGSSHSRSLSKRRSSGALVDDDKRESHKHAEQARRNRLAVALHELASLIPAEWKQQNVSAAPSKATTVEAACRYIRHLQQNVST

Sequence | relative binding free energy [kcal/mol]
TTGTTCACGTGCTTGG | 0.26
GTTTGCACGTGCTAGG | -0.03
GGTGACACGTGAGTTT | 0.36
TGGCTCACGTGGATGG | 0.25
TTGATCACGTGCATGT | 0.18
TGTGACACGTGCATGT | -0.06
TTATGCACGTGGGGTA | -0.25
ATCATCACGTGGTAGG | 0.05
GGCGGCACGTGTAACG | 0.13
TATACCACGTGAGTGG | 0.2
GATTGCACGTGTGTGA | 0.14
TAAATCACGTGGGGGC | 0.16
AAGAGCACGTGGCGGG | -0.24
TCGGGCACGTGTGTTT | -0.01
GGTGTCACGTGCGAAT | 0.09
AGGGACACGTGAAGGA | 0.27
TGAGTCACGTGCGTTT | 0.15
TATGGCACGTGAGTTT | 0.23
GGATTCACGTGGAGTT | 0.37
GTGCGCACGTGGACGT | -0.07
TGTGACACGTGAGCGG | 0.13
ACGGTCACGTGGTTCG | 0.06
GTCATCACGTGTTTAT | 0.27

Sequence | relative binding free energy [kcal/mol]
TGGGGCACGTGAGAAA | 0.21
TAGCGCACGTGTTATT | 0.08
TGGGCCACGTGTTTGA | -0.05
GGGGTCACGTGAGAGA | 0.46
AGTGTCACGTGGAGGC | 0.03
TAGAACACGTGGGGGG | -0.15
GGTCGCACGTGTTAGG | 0.08
CTGGGCACGTGCAAGG | -0.14
GTACTCACGTGTGGCG | 0.2
TGCGGCACGTGCGGCG | -0.14
CACTGCACGTGGGGGC | -0.14
AACTTCACGTGTGTAT | 0.4
TGGTACACGTGGTGTG | 0.05
GGGGACACGTGCTGGT | 0.02
TTAGCCACGTGGTTGT | -0.05
ACTATCACGTGATTTT | 0.34
TGTTACACGTGACTTA | 0.15
ATAGACACGTGGTCGG | -0.23
AGTAACACGTGTGGCA | 0.16
TGGCTCACGTGTAGAA | 0.28
ATTGTCACGTGGACGT | 0.01
GTTGGCACGTGGCTAT | -0.1
TAACTCACGTGGGGGC | 0.19

Sequence | relative binding free energy [kcal/mol]
AGGTTCACGTGGTCGC | 0.27
ATTGTCACGTGTCGGT | 0.15
ATTGTCACGTGCGGCA | 0.06
GTCTTCACGTGTGCTG | 0.28
GTTGGCACGTGCCGGT | -0.17
GTTCCCACGTGGAGGG | 0.03
GGATCCACGTGTGGTG | 0.15
AGTTACACGTGGTGCG | -0.04
AGTTGCACGTGTGGAT | 0.05
TAGAGCACGTGATATG | 0.02
GTGATCACGTGTGTAC | 0.17
ACTGGCACGTGTGGGT | -0.08
TTTGACACGTGATGTC | 0.16
GAAGTCACGTGCATGT | 0.19
GTTTGCACGTGCTGAT | 0
CGGGGCACGTGAAGAG | 0.03
CTGTTCACGTGGGGGG | 0.18
AAGTGCACGTGAGTAG | 0.1
ATATTCACGTGGTTTA | 0.16
TATGGCACGTGGATTC | -0.11
TCTTTCACGTGTGATG | 0.3
TGTGTCACGTGTGGTG | 0.15
GTGCTCACGTGCGGGG | 0.18

Sequence | relative binding free energy [kcal/mol]
GGGGGCACGTGCCTGT | -0.26
TGTGACACGTGGCTGG | -0.14
AGGGTCACGTGGGAAG | 0.15
TTGTCCACGTGATGAG | 0.06
TAGATCACGTGGTTGC | 0.22
CGTAACACGTGTCGGT | 0.19
GGTGGCACGTGATTGA | 0.08
TTTTACACGTGTCGGA | 0.29
ATGTGCACGTGTTAGA | -0.07
AGGTTCACGTGCGTCG | 0.39
TGCAGCACGTGTGTTA | 0.03
GTTTACACGTGGTATG | 0
AGGAACACGTGGGAGA | 0.01
CTTATCACGTGTAGTA | 0.23
TTGACCACGTGGTGGG | -0.16
TCGGGCACGTGTGTCT | -0.12
TCATACACGTGGCGGG | 0.1
TGAGGCACGTGGCTGT | -0.18
TGTCTCACGTGAGATT | 0.31
CCAGTCACGTGTAGGT | 0.18
TACTGCACGTGGTTGG | -0.03
TAATTCACGTGAGTGA | 0.37
ATTTGCACGTGGCGGC | -0.03

Sequence | relative binding free energy [kcal/mol]
CCAGTCACGTGTGTTG | 0.1
TGCATCACGTGTTATT | 0.16
CTTGGCACGTGATTTA | -0.01
GGGTTCACGTGATTAT | 0.6
CAGTGCACGTGCGGGG | -0.15
AGAGACACGTGTATTA | 0.17
CGCTGCACGTGGGGAT | -0.07
GGGTACACGTGCCGGT | 0.04
ATCGGCACGTGTTGAA | 0.07
TTCTTCACGTGATATT | 0.24
GTAAGCACGTGGACTT | 0.04
TGTTACACGTGTATCT | 0.28
TAATTCACGTGGGTGC | 0.13
GGATGCACGTGATGTA | 0.1
GTTGACACGTGGATTA | 0.13
GATGGCACGTGTTCGG | 0
AGTTTCACGTGTTTGG | 0.15
GGAAACACGTGTTTGT | 0.03
TGAGACACGTGAAAGG | 0.16
TGAGTCACGTGATAGA | 0.1
GTTAACACGTGAAGTT | 0.18
GGTAGCACGTGTCGGA | 0.05
CAGGACACGTGTAGGG | 0.1
